Molecular target: the molecule itself
Assay: SEC

B1: solubilized NH6-Salp15 (natural protein, Ixodes scapularis)
chain: MRGSHHHHHHGSGSGSGIEGRPYNGTGSVAANESGPTKADASTADKDTKKNNVQLRFPNYISNHQKLALKLLKICKDSKSSHNSLSSRSSDVINDKYVDFKNCTFLCKHGNDVNVTLNLPEDTPCGPNGQTCAEKNKCVGHIPGC
  stoichiometry N: 2
